Results published in PubChem BioAssay AID504832 (National Center for Advancing Translational Sciences (NCATS), 2011).
Hit rate of the full screen: of about 310,000 compounds, about 18,000 (5.8%) were called active. This list was built around the results that the source calls inconclusive (neither active nor inactive); the mix of calls is not that of the screen. Calls follow the shape of the dose curve; as a rule, active = well fitted inhibition curve with a large enough effect; inconclusive = small, poorly fitted or top-dose-only effect, or another doubt; inactive = no such curve, though single readings can be large or run the other way. Potencies of inconclusive entries are left out as doubtful fits.

Assay: Primary qHTS for delayed death inhibitors of the malarial parasite plastid, 48 hour incubation
Settings: P. falciparum luciferase growth in erythrocytes; series mostly up to 28.7 µM; activity change, negative = inhibition: at the top concentration
Summary of the method: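 Here the parasites carry a stable luciferase gene and grow inside erythrocytes in Albumax-based RPMI medium with compound for one erythrocytic cycle. Activity is scored as loss of luminescent signal.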
% is scaled to controls: 0 for no effect and ±100 for the full control effect; potency is read from the fitted curve at half-maximal effect; tags tell the direction and shape of the fitted curve.

**Q.** Which “activity change, negative = inhibition” value does the source give for `O=C(c1ccc(F)cc1)C1CCN(S(=O)(=O)c2ccccc2)CC1` here?
**A.** inactive: 39.9%

**Q.** For `CCOC(=O)/C(N=Nc1sc(C(=O)OC)c(C)c1C(=O)OCC)=C(\O)CCl`, which “activity change, negative = inhibition” value is on record?
**A.** inactive: 20.8%

**Q.** For `CCOC(=O)c1cnc(-n2nc(C)cc2C)nc1Oc1ccc(C(=O)OC)cc1`, which Potency is on record?
**A.** inconclusive [inhibitor, single point]

**Q.** Which “activity change, negative = inhibition” value does the source give for `Cc1c(CNCCc2ccc(Cl)cc2)c(C(=O)O)c(C)n1Cc1ccccc1` here?
**A.** inactive: -15.7%

**Q.** Which Potency does the source give for `COc1ccc(Cc2nnc(SCC(=O)Nc3ccc(C)c(Cl)c3)[nH]c2=O)cc1` here?
**A.** inconclusive [inhibitor, partial curve, poor fit]

**Q.** For `COc1ccc(S(=O)(=O)NCCc2c[nH]c3ccc(C)cc23)cc1`, which “activity change, negative = inhibition” value is on record?
**A.** inactive: 1.97%

**Q.** For `CC(Oc1ccc(Cl)cc1)C(=O)NNC(=S)NC(=O)c1ccco1` (configuration not stated), which Potency is on record?
**A.** inconclusive [inhibitor, single point]

**Q.** Which Potency does the source give for `CNC(=S)Nc1sc2c(c1C(=O)OC)CCC2` here?
**A.** inconclusive [inhibitor, partial curve]

**Q.** For `Cc1ccc(NC(=O)CCN2C(=O)c3ccncc3C2=O)cc1`, which “activity change, negative = inhibition” value is on record?
**A.** inactive: 33.6%

**Q.** With `COc1cc(C2N(C)C(=O)c3ccccc3N2C)ccc1O` (configuration not stated) as the molecule, how does the Potency read?
**A.** inconclusive [inhibitor, single point]

**Q.** With `COc1ccc(CNC(=O)C(=O)NCC2OCCN2S(=O)(=O)c2cccs2)cc1` (configuration not stated) as the molecule, how does the “activity change, negative = inhibition” value read?
**A.** inactive: -2.26%

**Q.** Which Potency does the source give for `CC[C@@]12C(=O)N(c3cccc(Br)c3)C(=O)N1[C@H](c1ccc(Br)cc1)[C@@H]1C(=O)N(C(C)(C)C)C(=O)[C@@H]12` here?
**A.** active: 10.4 µM

**Q.** For `Cc1ccccc1OCc1nnc(SCC(=O)Nc2ccc3c(c2)oc2ccccc23)n1C`, which Potency is on record?
**A.** inconclusive [inhibitor, single point]

**Q.** Which “activity change, negative = inhibition” value does the source give for `COc1ccc(N2CCN(C3CC(=O)N(C)C3=O)CC2)cc1` (configuration not stated) here?
**A.** inactive: 7.97%

**Q.** For `CCN(CC(=O)Nc1ccc(NC(C)=O)cc1)C(=O)/C=C/c1c(C)nn(-c2ccc(F)cc2)c1Cl`, which Potency is on record?
**A.** inconclusive [inhibitor, single point]

**Q.** With `COc1cccc(NC(=O)CSc2nccn(-c3ccc4c(c3)OCCO4)c2=O)c1` as the molecule, how does the Potency read?
**A.** inconclusive [inhibitor, single point]

**Q.** For `CCOC(=O)C1(CCOc2ccccc2)CCN(Cc2ccc(F)c(OC)c2)CC1`, which “activity change, negative = inhibition” value is on record?
**A.** inactive: -65.4%

**Q.** For `CCOC(=O)c1c(C)n(CC(O)c2ccccc2)c2ccc(O)cc12` (configuration not stated), which Potency is on record?
**A.** active: 11.7 µM

**Q.** With `CC(=O)C1=C(C)NC(SCC(=O)c2ccccc2)=C(C#N)C1CC(C)C` (configuration not stated) as the molecule, how does the Potency read?
**A.** inconclusive [inhibitor, partial curve]

**Q.** With `Cc1ccccc1NC(=O)/C(C#N)=C\c1cc(C)n(-c2ccc(C(=O)O)cc2)c1C` as the molecule, how does the Potency read?
**A.** inconclusive [inhibitor, partial curve]

**Q.** With `CCCC(=O)C1=C(O)C(C(=O)OC)C(C)(C)CC1=Nc1cccc2ccccc12` (configuration not stated) as the molecule, how does the Potency read?
**A.** active: 5.22 µM

**Q.** Which “activity change, negative = inhibition” value does the source give for `CCOC(=O)CNC(=O)c1sc(NC(=O)/C=C/c2ccccc2)nc1C` here?
**A.** inactive: 12.2%

**Q.** For `C/C(=N\NC(N)=S)c1ccncc1`, which Potency is on record?
**A.** active: 3.29 µM

**Q.** Which activity change, negative = inhibition does the source give for `COc1cccc(-n2nnc3c(=O)n(CC(=O)Nc4ccc(C)cc4)cnc32)c1` here?
**A.** inactive: 33.1% [at 1.15 µM]

**Q.** For `CCC(Sc1nnnn1-c1ccccc1)C(=O)Nc1nc2ccccc2s1` (configuration not stated), which Potency is on record?
**A.** inconclusive [inhibitor, single point]

**Q.** With `Cc1cccc(NC(=O)CC2SC(=NC3CCCCC3)NC2=O)c1` (configuration not stated) as the molecule, how does the Potency read?
**A.** inconclusive [inhibitor, single point]

**Q.** Which Potency does the source give for `CC(C)n1c2ccccc2c2cc([N+](=O)[O-])ccc21` here?
**A.** inconclusive [inhibitor, partial curve, poor fit]

**Q.** With `C=C(NC(=O)C(=C)NC(=O)c1csc(C2=NC3c4csc(n4)C4NC(=O)c5csc(n5)C([C@@](C)(O)C(C)O)NC(=O)C5CSC(=N5)/C(=C\C)NC(=O)C(C(C)O)NC(=O)c5csc(n5)[C@]3(CC2)NC(=O)C(C)NC(=O)C(=C)NC(=O)C(C)NC(=O)C(C(C)CC)NC2C=Cc3c(C(C)O)cc(nc3C2O)C(=O)OC4C)n1)C(N)=O` (some centres not stated) as the molecule, how does the Potency read?
**A.** active: 0.828 µM

**Q.** For `COC(=O)c1ccc(C(=O)OC)c(N)c1`, which “activity change, negative = inhibition” value is on record?
**A.** inactive: 38.8%

**Q.** For `COc1ccc(S(=O)(=O)N2CCN(C)CC2)cc1NC(=O)c1ccccc1C`, which “activity change, negative = inhibition” value is on record?
**A.** inactive: -14.3%

**Q.** Which Potency does the source give for `Cc1ccc(S(=O)(=O)N2CCOCC2)cc1C(=O)Nc1cc(Cl)ccc1N1CCOCC1` here?
**A.** active: 4.65 µM

**Q.** Which Potency does the source give for `CCCn1c(C(O)c2cc(OC)c(OC)c(OC)c2)nc2ccccc21` (configuration not stated) here?
**A.** inconclusive [inhibitor, partial curve, poor fit]

**Q.** With `COc1ccc2cc(C(=O)C3CCCN(C(=O)c4cc(=O)n(C)c(=O)n4C)C3)ccc2c1` (configuration not stated) as the molecule, how does the Potency read?
**A.** inconclusive [inhibitor, single point]

**Q.** Which Potency does the source give for `O=C(CSc1nc2ccccc2[nH]1)Nc1ccc(N2CCOCC2)cc1` here?
**A.** inconclusive [inhibitor, single point]

**Q.** With `CCc1ccc(NC(=O)C2CCN(C(=O)N3CCOc4ccccc43)CC2)cc1` as the molecule, how does the Potency read?
**A.** inconclusive [inhibitor, single point]

**Q.** With `O=C(Nc1ccc(F)cc1F)N1CCCN(c2ccc([N+](=O)[O-])cn2)CC1` as the molecule, how does the Potency read?
**A.** inconclusive [inhibitor, single point]

**Q.** With `O=C(Nc1cnn(C23CC4CC(CC(C4)C2)C3)c1)c1cnn2cccnc12` as the molecule, how does the “activity change, negative = inhibition” value read?
**A.** inactive: 82.1%

**Q.** Which Potency does the source give for `COc1ccccc1Cn1c(SCC(N)=O)nc2c(oc3ccccc32)c1=O` here?
**A.** inconclusive [inhibitor, single point]

**Q.** Which Potency does the source give for `O=C(c1cccnc1)C1CCCN(Cc2nc(Cc3ccccc3)no2)C1` (configuration not stated) here?
**A.** inconclusive [inhibitor, single point]

**Q.** Which Potency does the source give for `Cc1nn(-c2ccccc2)c(C)c1/C=N/NC(=O)c1ccccc1O` here?
**A.** active: 3.7 µM

**Q.** For `Cc1ccc(S(=O)(=O)N2CCCN(Cc3nc4ccccc4c(=O)[nH]3)CC2)cc1`, which Potency is on record?
**A.** inconclusive [inhibitor, partial curve, poor fit]

**Q.** Which Potency does the source give for `C=C(C)Cc1c(C)c(C#N)c2nc3ccccc3n2c1NCCCN(C)C` here?
**A.** inconclusive [inhibitor, full curve, poor fit]

**Q.** For `O=c1c2ccccc2nc2n1CCC2`, which Potency is on record?
**A.** inconclusive [inhibitor, partial curve, poor fit]

**Q.** For `O=C(CCc1nnc(-c2ccc3c(c2)OCO3)o1)NC(c1cccnc1)C(F)(F)F` (configuration not stated), which Potency is on record?
**A.** inconclusive [inhibitor, full curve, poor fit]

**Q.** Which Potency does the source give for `Cc1ccc(NC(=O)CCc2nc3ccccc3c(=O)[nH]2)cc1S(=O)(=O)N1CCOCC1` here?
**A.** inconclusive [inhibitor, partial curve]

**Q.** For `CSc1nsc(/C=C/Nc2ccc(F)cc2F)c1C#N`, which Potency is on record?
**A.** inconclusive [inhibitor, partial curve, poor fit]

**Q.** For `CNS(=O)(=O)c1ccc(C(=O)NCC(=O)NCCc2ccc3c(c2)OCCO3)cc1`, which “activity change, negative = inhibition” value is on record?
**A.** inactive: -14.7%

**Q.** With `O=C(c1cccc(N2CCCC2=O)c1)N1CCN(c2ccccc2)CC1` as the molecule, how does the Potency read?
**A.** inconclusive [inhibitor, partial curve]

**Q.** For `COCCn1nnnc1C(c1ccccc1Cl)N1CCN(c2ccccc2OC)CC1` (configuration not stated), which Potency is on record?
**A.** inconclusive [inhibitor, partial curve, poor fit]

**Q.** With `COc1ccc(Oc2nc(-c3ccncc3)nc3ccccc23)cc1` as the molecule, how does the Potency read?
**A.** inconclusive [inhibitor, full curve, poor fit]

**Q.** Which “activity change, negative = inhibition” value does the source give for `CCOC(=O)C1=C(C)N(CCCCCC(=O)O)C(=O)NC1c1ccc(Br)cc1` (configuration not stated) here?
**A.** inactive: -5.69%

**Q.** Which “activity change, negative = inhibition” value does the source give for `COc1ccc(C(=O)NNC(=O)c2ccncc2)cc1[N+](=O)[O-]` here?
**A.** inactive: 3.79%

**Q.** For `CCCCOC1(c2ccccc2)OC(=O)c2ccccc21` (configuration not stated), which Potency is on record?
**A.** inconclusive [inhibitor, partial curve]

**Q.** With `CCOC(=O)c1ccc(NC(=O)CCNC(=O)c2ccc([N+](=O)[O-])cc2)cc1` as the molecule, how does the Potency read?
**A.** inconclusive [inhibitor, single point]

**Q.** Which Potency does the source give for `O=C(c1ccccc1)N1CCN(C(=O)c2nn3c(C(F)(F)F)cc(-c4ccco4)nc3c2Cl)CC1` here?
**A.** inconclusive [inhibitor, single point]

**Q.** For `O=C(Nc1cnn(Cc2ccccc2)c1)c1cc2nc(-c3ccco3)cc(C(F)(F)F)n2n1`, which Potency is on record?
**A.** inconclusive [inhibitor, single point]

**Q.** For `Cc1ccc(O)c(Nc2c3ccccc3nc3ccccc23)c1`, which Potency is on record?
**A.** inconclusive [inhibitor, full curve, poor fit]

**Q.** For `COc1ccc(CCC(C)NC2C3CC4CC(C3)CC2C4)cc1` (configuration not stated), which Potency is on record?
**A.** inconclusive [inhibitor, single point]

**Q.** Which Potency does the source give for `CC(C)C[C@H](NC(=O)c1[nH]cnc1C(=O)N[C@@H](C)C(=O)OC(C)(C)C)C(=O)OC(C)(C)C` here?
**A.** active: 7.38 µM

**Q.** Which “activity change, negative = inhibition” value does the source give for `CC(C)(O)C1Cc2cc(/C=C/C(=O)O)c(O)cc2O1` (configuration not stated) here?
**A.** inactive: 1.81%

**Q.** With `CC(C)C[C@@H](C(=O)NC1CC1)N1C(=O)N2CCc3c([nH]c4ccccc34)[C@@]2(C)C1=O` as the molecule, how does the Potency read?
**A.** inconclusive [inhibitor, partial curve]

**Q.** Which Potency does the source give for `Cc1nn(C(C)C)c(C)c1CN1CCCC(C(=O)c2cccc(OC(C)C)c2)C1` (configuration not stated) here?
**A.** inconclusive [inhibitor, partial curve]

**Q.** For `COc1cc(Cl)c(S(=O)(=O)NCc2cccnc2)cc1Cl`, which “activity change, negative = inhibition” value is on record?
**A.** inactive: 12.7%

**Q.** Which “activity change, negative = inhibition” value does the source give for `O=C(O)c1cc(N/N=C/c2ccncc2)ccc1Cl` here?
**A.** inactive: 155%

**Q.** For `COc1ccc(-c2cccc(C(=O)Nc3ccccc3C)c2)cc1`, which “activity change, negative = inhibition” value is on record?
**A.** inactive: 4.45%

**Q.** With `COc1ccc(NC(=O)CCc2ccccc2)cc1S(=O)(=O)N1CCOCC1` as the molecule, how does the Potency read?
**A.** inconclusive [inhibitor, single point]

**Q.** With `O=C(C1=C[C@H](c2ccccc2)C[C@H](OCc2ccc(CO)cc2)O1)N1CCN(Cc2ccccc2)CC1` as the molecule, how does the Potency read?
**A.** inconclusive [inhibitor, partial curve, poor fit]
